Assay results as given in PubChem BioAssay AID588579 (National Center for Advancing Translational Sciences (NCATS), 2011).
Several values for one entry are separate records, joined by “and”; a condition that tells them apart may be missing. Identical values can stand only once. About 2,200 (0.55%) of roughly 400,000 compounds were called active. The inconclusive results got no clear call from the source; some entries with a clear call stand among them for comparison. The call rests on the fitted dose curve; in most records, active means well fitted inhibition curve with a large enough effect; inconclusive means small, poorly fitted or top-dose-only effect, or another doubt; inactive means no such curve, though single readings can be large or run the other way. Where the call is inconclusive, the potency comes from a doubtful curve fit. Starred links: 1 amine or outer side, 2 acyl side, 3 side chain; linkers in the order of their positions; H or OH if unused. Non-standard residues stand in square brackets, D forms with d. Residues, ends and D or L forms follow the SMILES beside them. X2 = N[C@@H](Cc1ccccc1)CN(CC(=O)[*:2])[*:1]
On the % scale 0 is the no-effect control and ±100 the full control effect; potency means the concentration at half of the fitted maximal effect; tags describe the fitted curve by direction and shape.

Each compound was assayed against DNA polymerase kappa (Homo sapiens) (UniProt Q9UBT6) (assay: qHTS for Inhibitors of Polymerase Kappa). Conditions: purified Pol kappa, fluorescent DNA synthesis assay, 10 min; series mostly up to 107 µM; activity, negative = inhibition: at the top concentration.
Chain of UniProt Q9UBT6 (Q9UBT6 whole entry, looked up): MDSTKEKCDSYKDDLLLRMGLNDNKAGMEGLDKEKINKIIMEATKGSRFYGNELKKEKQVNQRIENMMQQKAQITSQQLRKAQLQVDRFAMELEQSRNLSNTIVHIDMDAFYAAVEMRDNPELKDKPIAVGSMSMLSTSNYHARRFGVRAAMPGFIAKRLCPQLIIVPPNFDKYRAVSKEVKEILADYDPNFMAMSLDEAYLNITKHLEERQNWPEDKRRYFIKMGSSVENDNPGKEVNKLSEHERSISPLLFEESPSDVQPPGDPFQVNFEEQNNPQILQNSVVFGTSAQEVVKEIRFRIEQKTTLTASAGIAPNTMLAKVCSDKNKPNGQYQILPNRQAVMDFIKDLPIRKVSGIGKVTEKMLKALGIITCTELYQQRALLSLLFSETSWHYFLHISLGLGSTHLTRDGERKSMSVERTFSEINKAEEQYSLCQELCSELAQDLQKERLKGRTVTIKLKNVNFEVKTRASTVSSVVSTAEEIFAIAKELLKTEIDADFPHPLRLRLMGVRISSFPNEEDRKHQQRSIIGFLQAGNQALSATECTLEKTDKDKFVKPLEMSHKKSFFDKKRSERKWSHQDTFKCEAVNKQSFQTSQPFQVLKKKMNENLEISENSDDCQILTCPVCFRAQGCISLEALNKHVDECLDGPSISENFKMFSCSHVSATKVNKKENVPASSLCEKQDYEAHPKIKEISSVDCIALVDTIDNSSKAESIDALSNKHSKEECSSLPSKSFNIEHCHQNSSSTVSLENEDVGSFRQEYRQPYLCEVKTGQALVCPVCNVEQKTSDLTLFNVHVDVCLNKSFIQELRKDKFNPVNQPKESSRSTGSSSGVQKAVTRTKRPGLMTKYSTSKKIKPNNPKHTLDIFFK
How it was run: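 Kinetic fluorescence screen: compound preincubated 15 min RT with 10 nM enzyme; 50 nM substrate (final) initiates; reads at 0/10 min.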
For COc1ccccc1N1CCN(C(=O)c2noc(C)c2[N+](=O)[O-])CC1, the Potency was inconclusive: 100 µM [inhibitor, single point].
With O=C(O)c1ccc(N=Nc2c(O)ccc3ncccc23)cc1 the Potency was active: 28.2 µM.
With ON=C1/C(=N\O)CC2(C/C1=N/O)OCCO2 the Potency was inconclusive: 89.1 µM [inhibitor, single point].
CC(=O)Oc1c2c(c3c(c1CC=C(C)C)O[C@@]14C(=CC5CC1C(C)(C)OC4(C/C=C(\C)C(=O)O)C5=O)C3=O)OC(C)(CCC=C(C)C)C=C2 (some centres undefined) was tested, and the Potency was active: 31.6 µM.
In the case of COc1cc2c(Cc3c4c5c(cc(OC)c(OC)c5c5c(OC)c(OC)ccc35)CCN4C)c3c4c(cc(OC)c(OC)c4c2cc1OC)CCN3C, the Potency is reported as inconclusive: 5.62 µM [inhibitor, partial curve, poor fit].
With COc1ccc(-c2nc3cnc(N4CCNCC4)nc3n(-c3ccc(OC)cc3)c2=O)cc1 the Potency was inconclusive: 31.6 µM [inhibitor, single point].
With COCc1cc(CN2CCCC(CNC(=O)c3ccc(F)cc3)C2)ccc1OC (centres undefined) the “activity, negative = inhibition” value was inactive: -3.74%.
For CCc1cccc(NC(=O)CCN2C(=O)c3ccccc3Sc3ncccc32)c1, the Potency was inconclusive: 100 µM [inhibitor, single point].
O=C1/C(=C/c2ccc(C(=O)O)cc2)CCC/C1=C\c1ccc(C(=O)O)cc1 was tested, and the “activity, negative = inhibition” value was inactive: 0%.
Nc1ccc(C(=O)Nc2ccc3nc(-c4cccnc4)[nH]c3c2)cc1 was tested, and the Potency was inconclusive: 79.4 µM [inhibitor, partial curve, poor fit].
With COc1ccc(-c2ccc(C3C4C=CCC(C)C4C(=O)N3Cc3ccccc3)c(F)c2)cc1C (centres undefined) the Potency was inconclusive: 100 µM [inhibitor, single point].
In the case of Cc1ccc(OC(=O)CSc2nnc(-c3cccs3)o2)c(C)c1, the “activity, negative = inhibition” value is reported as inactive: -6.6%.
In the case of CCOc1cc(C2C(C(=O)OC)=C(C)NC3=C2C(=O)c2ccccc23)cc(Br)c1OCC (centres undefined), the Potency is reported as inconclusive: 89.1 µM [inhibitor, single point].
In the case of COc1cc(/C=N/NC(=O)c2cc(-c3ccc4c(c3)OCO4)n[nH]2)ccc1O, the Potency is reported as active: 79.4 µM.
Cc1cccc(N2CC(C(=O)Nc3nnc(SCc4ccccn4)s3)CC2=O)c1 (centres undefined) was tested, and the Potency was inconclusive: 100 µM [inhibitor, single point].
In the case of COc1ccccc1NC(=O)CSc1nc2sc(C)c(C)c2c(=O)n1Cc1ccco1, the Potency is reported as inconclusive: 89.1 µM [inhibitor, single point].
In the case of C=CCN(CC=C)S(=O)(=O)c1ncn[nH]1, the Potency is reported as inconclusive: 89.1 µM [inhibitor, single point].
With COc1ccc(Cn2c(CCC(=O)Nc3ccccc3OC)nc3cccnc32)cc1 the Potency was inconclusive: 89.1 µM [inhibitor, single point].
For CCc1ccc(N2CC(C(=O)OCc3nc4ccsc4c(=O)[nH]3)CC2=O)cc1 (centres undefined), the Potency was active: 79.4 µM.
In the case of COc1ccc(C(=O)Nc2ccccc2N2CCOCC2)cc1[N+](=O)[O-], the “activity, negative = inhibition” value is reported as inactive: -11.3%.
For COc1ccc(Br)cc1CNC(=O)Cn1ncn2nc(-c3cccs3)cc2c1=O, the “activity, negative = inhibition” value was inactive: -9.47%.
With CC(=O)Nc1ccc(N2C(=O)c3cccc4c(O)ccc(c34)C2=O)cc1 the Potency was inconclusive: 39.8 µM [inhibitor, single point].
CC(C)(NC(=O)c1ccccc1)c1nc2ccccc2s1 was tested, and the “activity, negative = inhibition” value was inactive: -0.728%.
With CC(C)CNC1=CC(=O)CC(c2ccco2)C1 (centres undefined) the Potency was inconclusive: 89.1 µM [inhibitor, single point].
In the case of Cc1ccc(C(=O)N[C@H](C(=O)OCc2cc(=O)n3c(n2)sc2ccccc23)C(C)C)cc1, the Potency is reported as inconclusive: 79.4 µM [inhibitor, partial curve, poor fit].
In the case of CCN(CC(=O)Nc1ccc(NC(C)=O)cc1)CC(=O)Nc1cc(C)on1, the Potency is reported as inconclusive: 89.1 µM [inhibitor, partial curve, poor fit].
In the case of Cc1ccc(C(O)(COC(=O)C(C)C)COC(=O)C(C)C)c(O)c1, the Potency is reported as inconclusive: 79.4 µM [inhibitor, partial curve, poor fit].
For CC1CCCC(C)N1C(=O)COC(=O)CNC(=O)c1ccccc1 (centres undefined), the “activity, negative = inhibition” value was inactive: -12.2%.
In the case of CCCN(CC(=O)Nc1ccccc1C)C(=O)c1ccc(OCc2c(C)noc2C)cc1, the “activity, negative = inhibition” value is reported as inactive: -14.1%.
In the case of CCOc1ccc(NC(=O)c2ccc(N)cc2)cc1, the “activity, negative = inhibition” value is reported as inactive: 5.83%.
O=C1CC(=O)N(Cc2ccco2)C(=S)N1 was tested, and the Potency was active: 3.16 µM.
For CN(C)c1ccc(/C=C/c2ccnc3ccc4ccccc4c23)cc1, the Potency was active: 28.2 µM.
With CC1(C)C(/C=C/C=C/C=C/C=C2\N(CCCCS(=O)(=O)O)c3ccc4ccccc4c3C2(C)C)=[N+](CCCCS(=O)(=O)[O-])c2ccc3ccccc3c21 the Potency was active: 22.4 µM.
In the case of O=C(O)Cc1ccc(NC(=O)c2ccc(NC(=O)c3ccco3)cc2)cc1, the Potency is reported as inconclusive: 79.4 µM [inhibitor, single point].
CCSc1nnc(SCC(=O)Nc2cc(C)on2)s1 was tested, and the Potency was inconclusive: 89.1 µM [inhibitor, single point].
In the case of COc1ccc(S(=O)(=O)N2CCN(C(=O)/C=C/c3ccco3)CC2)cc1, the Potency is reported as inconclusive: 89.1 µM [inhibitor, single point].
For Cc1ccc(-c2nc3c(c(SCC(=O)Nc4cccc(C(=O)O)c4)n2)Cc2cccc(C)c2O3)cc1, the Potency was inconclusive: 100 µM [inhibitor, single point].
CCN(CC)CCNC(=O)c1ccc2c(=O)n3nc(Nc4ccccc4)sc3nc2c1 was tested, and the “activity, negative = inhibition” value was inactive: -1.52% [at 60.1 µM].
With Cc1ccc2nc(NC(=O)C3CCN(S(=O)(=O)c4cc([N+](=O)[O-])ccc4Cl)CC3)sc2c1 the Potency was inconclusive: 89.1 µM [inhibitor, single point].
With Cc1ccc(CNC(=O)C2CCCN(Cc3nc(-c4cccc(C)c4)oc3C)C2)cc1 (centres undefined) the Potency was inconclusive: 89.1 µM [inhibitor, partial curve, poor fit].
For O=C(CSc1nc(-c2ccc(F)cc2)nc2c1Cc1ccccc1O2)Nc1ccc(C(=O)O)cc1, the Potency was inconclusive: 70.8 µM [inhibitor, partial curve, poor fit].
With CCOc1cc(/C=C2\SC(=S)N(NS(=O)(=O)c3ccc(C)cc3)C2=O)ccc1O the Potency was inconclusive: 79.4 µM [inhibitor, partial curve, poor fit].
C[C@H](NC(=O)CNC(=O)[C@@H](NC(=O)[C@H](Cc1ccccc1)NC(=O)CNC(=O)CNC[C@@H](N)Cc1ccccc1)[C@@H](C)O)C(=O)N[C@@H](CCCN=C(N)N)C(=O)N[C@@H](CCCCN)C(=O)N[C@@H](CO)C(=O)N[C@@H](C)C(=O)N[C@@H](CCCN=C(N)N)C(=O)N[C@@H](CCCCN)C(N)=O (H-[X2]GFTGARKSARK-NH2) was tested, and the Potency was inconclusive: 26.7 µM [inhibitor, single point].
In the case of O=C(CCC1N=C2c3ccccc3N=C(SCC(=O)NCc3ccco3)N2C1=O)NCc1ccco1 (centres undefined), the Potency is reported as inconclusive: 79.4 µM [inhibitor, partial curve, poor fit].
CC(=O)Nc1ccc(C(=O)/C=C/c2ccco2)cc1 was tested, and the Potency was active: 44.7 µM.
For CCc1ccc(NS(=O)(=O)c2ccc3[nH]cc(C(=O)N4CCCCC4)c(=O)c3c2)cc1, the “activity, negative = inhibition” value was inactive: -42%.
For CCCCc1ccc(NC(=O)c2ccc3c(c2)CCN3S(=O)(=O)c2ccccc2)cc1, the Potency was inconclusive: 79.4 µM [inhibitor, partial curve].
COc1ccc(OC)c(NC(=O)N2CCC(CN3CCCCC3)CC2)c1 was tested, and the “activity, negative = inhibition” value was inactive: -2.73%.
C/C(=N\OC(=O)c1ccc(C)cc1)c1sc(C)nc1C was tested, and the “activity, negative = inhibition” value was inactive: -4.51%.
For CC[C@H](C)C1NC(=O)[C@H](CC(=O)O)NC(=O)c2cc([N+](=O)[O-])cc(I)c2NCCC(C(N)=O)NC1=O (some centres undefined), the Potency was active: 79.4 µM.
For Cc1ccc(S(=O)(=O)N/N=C\c2cn(CC(N)=O)c3ccccc23)cc1, the “activity, negative = inhibition” value was inactive: 0.178%.
For Cc1cc2c(NC(=O)CC(C)(C)CC(=O)O)cccc2nn1, the Potency was inconclusive: 79.4 µM [inhibitor, partial curve, poor fit].
In the case of CC(Cc1c[nH]c2ccccc12)C(=O)NCc1ccco1 (centres undefined), the Potency is reported as inconclusive: 89.1 µM [inhibitor, single point].
CC(C)CCn1c(SCC(=O)N2CC(=O)Nc3ccccc32)nc2scc(-c3cccs3)c2c1=O was tested, and the Potency was inconclusive: 89.1 µM [inhibitor, partial curve, poor fit].
With CC(C)c1nc(N2CCN(C(=O)c3ccccc3)CC2)c(C#N)c2c1COC(C)(C)C2 the “activity, negative = inhibition” value was inactive: -9.11%.
With O=c1cc(-c2ccc(O)c(O)c2)oc2cc(O[C@@H]3O[C@H](CO)[C@@H](O)[C@H](O)[C@H]3O)cc(O)c12 the Potency was active: 16.8 µM and active: 2.51 µM.
COc1c(-c2ccc(O)c(O)c2)oc2cc(O)cc(O)c2c1=O was tested, and the Potency was active: 12.6 µM and active: 14.1 µM.
With C/C(=N/NC(=O)c1ccco1)c1cccc(NC(=O)c2ccc(C)s2)c1 the Potency was active: 89.1 µM.
With Cc1ccc(Cl)cc1N1CCN(C(=O)CN(c2ccccc2)S(=O)(=O)N(C)C)CC1 the Potency was inconclusive: 89.1 µM [inhibitor, single point].
With N=C1C(c2nc3ccccc3s2)=C(O)CN1NC(=O)c1ccco1 the “activity, negative = inhibition” value was inactive: -34.6%.
With CCOC(=O)CC1C(=O)NCCN1c1nc2c(C)cccn2c(=O)c1/C=C1\SC(=S)N(C(C)CC)C1=O (centres undefined) the Potency was inconclusive: 39.8 µM [inhibitor, single point].
With Cc1ccccc1NC(=O)CCS(=O)(=O)c1ccc(Br)s1 the Potency was inconclusive: 89.1 µM [inhibitor, single point].
In the case of CCOc1ccc(N=Cc2c(C)[nH]n(-c3nc4ccccc4[nH]3)c2=O)cc1, the Potency is reported as inconclusive: 89.1 µM [inhibitor, single point].
O=C(NCCc1c[nH]c2ccccc12)C1CCC(=O)N(CCc2cccc(F)c2)C1 (centres undefined) was tested, and the “activity, negative = inhibition” value was inactive: 6.68%.
